# Measured values as given in the supplement of paper PMC3334620.
# In all, about 33,000 sequences were measured (“E-score (-0.5 to 0.5)”: median about -0.012, highest 2% from about 0.27 on). The list shows a part of the results.
# Biological target: T1, Vhr1 (UniProt P40522)
# T1 sequence: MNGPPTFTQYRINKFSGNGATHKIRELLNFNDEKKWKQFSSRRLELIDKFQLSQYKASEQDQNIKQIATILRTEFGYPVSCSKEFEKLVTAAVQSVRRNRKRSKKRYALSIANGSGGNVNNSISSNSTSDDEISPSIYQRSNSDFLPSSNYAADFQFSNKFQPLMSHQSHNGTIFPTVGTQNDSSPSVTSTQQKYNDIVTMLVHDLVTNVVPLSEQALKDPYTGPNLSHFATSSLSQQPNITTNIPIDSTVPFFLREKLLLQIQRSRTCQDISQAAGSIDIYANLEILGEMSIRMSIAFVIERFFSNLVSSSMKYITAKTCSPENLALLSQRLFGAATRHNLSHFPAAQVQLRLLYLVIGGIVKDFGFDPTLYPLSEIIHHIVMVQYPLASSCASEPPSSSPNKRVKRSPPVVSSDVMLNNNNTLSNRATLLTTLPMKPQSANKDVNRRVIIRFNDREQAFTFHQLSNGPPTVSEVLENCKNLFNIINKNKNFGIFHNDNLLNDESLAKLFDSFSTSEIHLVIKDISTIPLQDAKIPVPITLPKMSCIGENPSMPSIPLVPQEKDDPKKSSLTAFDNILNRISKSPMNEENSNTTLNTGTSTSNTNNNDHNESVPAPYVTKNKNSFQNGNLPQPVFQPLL
# Assay: PBM E-score (8-mer binding enrichment) (E-score (-0.5 to 0.5)); higher = stronger / more preferred TF binding; most listed sequences are background and not binding sites
# Details: protein concentration: 200 nM; construct: GST-full length
# Summary of the method: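 Using PURExpress in vitro transcription/translation, GST-tagged yeast transcription factors were made in full-length or DNA-binding-domain form. These were applied at about 100-200 nM to double-stranded universal all-10-mer Agilent arrays, and bound protein was detected with fluorescent anti-GST. Scans were normalised with masliner before the Universal PBM Analysis Suite assigned E-scores to ungapped eight-base words pooled with their reverse complements.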
row,Sequence,PBM E-score
1,ACGTGTAA,0.145
2,AAGCGCAG,-0.0586
3,CAAGGACC,-0.0343
4,ATCCTCCC,-0.107
5,AGGCGGGG,0.121
6,CATTACCA,0.0557
7,AATCAATC,0.186
8,CTCCGTTA,-0.0185
9,GATGTTAA,0.0387
10,ACAGATAA,-0.07
11,AGCGTACC,-0.0102
12,CCCGAATC,0.145
13,TCGCCTCA,-0.202
14,GTATGCGA,0.117
15,CCTCCCCC,-0.19
16,CATCGAGG,-0.0476
17,AGTGCCCC,-0.109
18,GTGCTCAA,-0.0756
19,ACCCACTA,0.133
20,TAGGGTAA,0.0987
21,ACGTGAAA,-0.0882
22,CGCCATTC,0.0956
23,ATCATGAT,0.245
24,ACGTCAAG,-0.203
25,AAGGCACA,-0.0305

row,Sequence,PBM E-score
1,GGTCATAA,-0.0598
2,CCGTGCAC,-0.182
3,AAATGCCA,-0.305
4,GGCGCGAC,0.275
5,AGAAAGTA,-0.025
6,CACTTCTA,-0.121
7,CTGATCAC,0.0343
8,AAGAACGA,-0.165
9,CATCGGGG,-0.00022
10,AAAGGCTG,-0.117
11,CGCACTTA,0.0925
12,TCGGTACA,0.104
13,ACGTCAGG,-0.215
14,AAAAGCCA,-0.0583
15,CCCGCAGG,-0.00271
16,TAGTACAA,0.151
17,CCCGTGAG,0.0386
18,CATGGTAC,0.197
19,GGATGGGA,0.233
20,AGGTCCTA,-0.158
21,GCTTGGTA,0.106
22,CAGATGCC,-0.0597
23,CCATTCAG,-0.0511
24,GACGGGGA,0.0241
25,CGCGGGCC,0.187

row,Sequence,PBM E-score
1,CGTGGAAC,0.0558
2,ATTGTGGA,0.121
3,ACGTGAAC,-0.129
4,GCTTTGAA,-0.252
5,TGATCCCA,0.0559
6,ATGTAGTC,0.286
7,CACTACAG,0.0781
8,GGTAACCA,0.0769
9,CGGAGTAC,0.0632
10,CTGTGAGC,-0.0302
11,ATCTCGAA,-0.23
12,ATTTCTGG,-0.131
13,GGAGGATA,-0.05
14,ATAATAGC,-0.0587
15,CAACGCAC,0.0171
16,CTAGTCTC,-0.0355
17,TACACGTA,0.0745
18,AATGAGGT,-0.113
19,CCCTACAC,0.154
20,CGTCATCA,0.0722
21,ATTAATAA,0.143
22,ATCTCCGG,0.055
23,ATCCTATG,0.0419
24,AACGAGCA,-0.0591
25,GCTCCAAA,-0.165

row,Sequence,PBM E-score
1,AATAGTCA,0.344
2,AGCAGGCC,-0.0617
3,AACGTCTC,0.0206
4,CTACGCTA,-0.192
5,ATTTAAGG,-0.155
6,TGAGGGAA,-0.0711
7,AATCATGG,0.387
8,AACCCTAG,-0.0365
9,TGTCGCAA,-0.0761
10,GTCCGATA,-0.0706
11,CACGGACC,0.0377
12,AAAACAGC,-0.0424
13,CCCCGGTA,-0.0301
14,CACCCCCC,-0.0808
15,AGTATCCG,0.148
16,ATATCCGA,0.211
17,ACGGAGTC,0.408
18,ATTGTGGC,0.0697
19,AAACGACC,-0.0187
20,AAACCTCA,0.09
21,CGTCCAGC,-0.199
22,GCATGAGC,-0.004
23,ACACAGGA,0.18
24,CCGTAGTC,0.241
25,GAATGAGC,-0.0284

row,Sequence,PBM E-score
1,GAGCTGGC,0.114
2,GAGGACGC,-0.123
3,AAGGATCG,0.0507
4,CCCACAAG,-0.0259
5,CAAGGAGC,-0.059
6,CATGACTA,0.458
7,AATTAATG,0.0751
8,ACCTATCC,0.00922
9,CACTTAGC,-0.0315
10,ACTTGTGG,0.127
11,CCTGTTCA,-0.108
12,AAATTTTC,-0.42
13,CAAACTTC,0.0398
14,AGGTACTA,0.135
15,CCCTGGGC,-0.0164
16,CCGGGGCC,0.0664
17,CCCCCCCC,-0.252
18,TCGAGACA,0.0302
19,ATTCCTGA,0.141
20,AAATGACA,-0.00611
21,CTGCTACA,0.00558
22,CGCGGAGA,0.183
23,CCGTGTCA,0.0507
24,TCGACTAA,0.207
25,GCAATAGA,-0.171

row,Sequence,PBM E-score
1,AACACGTT,-0.158
2,CTCCTTTA,-0.33
3,ATGCTATA,-0.00334
4,AAGAAATA,-0.178
5,ATCACAAC,0.00509
6,TCTGCAAA,-0.109
7,AGAGCCTA,-0.236
8,AGCGCCGA,-0.123
9,GTACATAC,0.119
10,GAAAAAGC,-0.276
11,ACGAAAAG,-0.0432
12,CAACTGAC,-0.00114
13,GCTCCACA,-0.104
14,CGGTGAAA,-0.182
15,AAGAAGAT,-0.0562
16,GGGGCACC,-0.0787
17,ATACAATG,0.154
18,AATGGGAA,-0.315
19,AACATGGC,-0.0468
20,ATGAGTAA,0.256
21,AGAAAGTG,-0.0964
22,ATTGCATC,0.0318
23,CTTTTCCC,-0.231
24,AAAGTAAA,-0.173
25,ATTTGCTG,0.075

row,Sequence,PBM E-score
1,TCGCCAAA,-0.149
2,CCTCATTA,-0.111
3,AATATCAC,0.0106
4,AAGTCAAC,-0.00442
5,CAGCGACC,0.029
6,AGTTCTCG,-0.096
7,AAAGGCAT,-0.177
8,AGCTGAGC,-0.144
9,CTGCGATC,0.12
10,GGAGGCGA,-0.0657
11,AATCCTTG,0.0138
12,GAGCCCCC,-0.194
13,CCTTGCTA,0.0829
14,CAAGCGGA,0.0103
15,ACGGCTCT,-0.185
16,CAATAAGA,-0.0206
17,ATCCCCGA,-0.0525
18,ATACTTCA,-0.166
19,ATCTTAAA,-0.0666
20,CGTCTGAC,0.00249
21,CTAGTGAG,0.0749
22,CTTAACTA,-0.118
